# The other results are listed elsewhere or left out. At the low end of the ranking, values are background and their order means little.
# Target: T1, GST-Rok-C97-191 (UniProt O34857)
# T1 sequence: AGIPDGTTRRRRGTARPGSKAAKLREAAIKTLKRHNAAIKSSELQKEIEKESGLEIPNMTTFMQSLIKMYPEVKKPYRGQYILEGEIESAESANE
# Assay: protein binding microarray;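 also: rank score from −0.5 (least bound) to 0.5 (best bound)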
# Conditions: Rok is a gene silencer of Bacillus subtilis; high values mean tight binding; most listed sequences are background and not binding sites; double strand, one strand shown
row,Sequence,binding signal [E-score]
1,AGTCTTGA,-0.051
2,CAAGTCGG,0.0501
3,AGGGCCTG,-0.369
4,TCCCATAA,-0.0486
5,ACCTGCCC,-0.288
6,CTCCATCA,-0.0795
7,CGCTACAG,0.0451
8,GTAGGTGA,0.139
9,CCGACAGA,-0.0286
10,GACATATA,0.307
11,CCTTAAGG,-0.136
12,ACGGCCAT,-0.0791
13,ACATCGCT,-0.158
14,ATTAGGAC,0.107
15,AGGAATAA,0.115
16,ACACTCCT,-0.18
17,CATCGCTA,0.00374
18,GTAGTGCA,0.015
19,GCTTTTCC,0.00274
20,CGTATAGA,0.1
21,AAGTAAAC,0.116
22,GTGCGTGA,0.104
23,CTTTGACA,-0.0598
24,ATTATCAC,0.173
25,GACAAGAA,-0.168

row,Sequence,binding signal [E-score]
1,CGAAAGTA,0.203
2,CATCTCGA,-0.0346
3,AGTTCTGG,-0.02
4,AGGCCACG,-0.247
5,AAAAGAGG,-0.0599
6,GACTGCAC,-0.239
7,CAAAAGCC,-0.0199
8,GCTCACTA,0.0154
9,AAGCGGCC,-0.2
10,AAACCGTA,-0.119
11,CATTCCCG,-0.0412
12,CGCAAACA,-0.0194
13,ACAATGAT,0.143
14,GTTGACGA,-0.0987
15,ACATATCT,0.162
16,AGAAAGCG,0.104
17,CCAATAAG,0.0325
18,CGTCGGAC,-0.0828
19,ATCTTAGG,-0.016
20,CGCAGAGC,-0.17
21,TCATTAGA,0.116
22,ACCTTCCT,-0.142
23,ACGTAGAC,0.0154
24,GAAGCACC,-0.322
25,ATCCTCGA,-0.156

row,Sequence,binding signal [E-score]
1,AGTTCACG,0.0934
2,AGGGTTAC,-0.183
3,CACACTAA,0.175
4,CCAAGCCA,-0.148
5,AACTGATT,0.0123
6,CAGGCCAC,-0.131
7,AATACCAG,0.0214
8,CCACGCCA,-0.234
9,GAGGCGTA,-0.0228
10,GGAGGTGA,-0.229
11,CAACGCTG,0.0441
12,CCATTACG,0.176
13,GGGTCGAA,-0.192
14,CCTGATAG,0.000217
15,CGCTATAA,0.114
16,GTTGCCAA,-0.0231
17,CGTAGGGC,-0.278
18,GAAATAGC,0.128
19,AAGCGGGA,-0.209
20,AACGAGTT,0.137
21,ATGCTAAG,0.055
22,GCCTACGA,-0.0187
23,ATACCGGG,0.267
24,ACAGGTTG,-0.118
25,AGGGGCTA,-0.2

row,Sequence,binding signal [E-score]
1,TCGAAGAA,-0.18
2,AACCAACG,-0.0749
3,CCGCTGCG,-0.244
4,GAGTTGAC,0.0426
5,CATTACGA,0.0599
6,CTGGGAGC,-0.253
7,GTGAGGCA,-0.0498
8,CGGACTCA,-0.063
9,GCTCCGGA,-0.172
10,ACCACGCA,-0.145
11,AGGTGTCG,-0.132
12,AAAGCGGT,0.0205
13,CACTCGAG,-0.131
14,AAAGTGAA,-0.108
15,ACCTGGGA,-0.213
16,AGGGAGAC,-0.336
17,CCGTAGGC,-0.0487
18,CCGCGTGA,-0.00819
19,ACTTTGCT,-0.0196
20,AGCACCAG,-0.102
21,AAATGAAG,0.0181
22,CGGTGGGC,-0.218
23,AATTCCTG,0.0778
24,ACGGAAAA,0.216
25,CTCCGTGA,-0.0664

row,Sequence,binding signal [E-score]
1,GATGCAGA,-0.0198
2,ATCGGATC,0.18
3,ATCAATTG,0.106
4,TGAGCGCA,-0.134
5,CAAACTTG,0.147
6,ACTGCTAA,0.133
7,AGTAGTTA,0.424
8,CTACTTCA,0.207
9,CAAATCTA,0.354
10,ACATGTAG,0.315
11,CACGGGGA,-0.0963
12,CGCCTAAA,-0.29
13,AACCCCGC,-0.32
14,TCAGCCAA,-0.109
15,CTTGAGAC,-0.225
16,ATAACTGG,0.119
17,CAGGTTTA,-0.216
18,ACAAGACA,-0.115
19,ATTCCCAC,-0.00231
20,AGACGGCT,-0.0565
21,AGTTCCAC,0.0477
22,CGGGTTGA,-0.0983
23,CCCTCTGA,-0.142
24,CGTTCCTC,-0.0882
25,ATCAGGGC,-0.0371

row,Sequence,binding signal [E-score]
1,GCTTAGCA,-0.0495
2,GCACAGGA,-0.132
3,AACCCCGG,-0.193
4,ATGGCGAC,-0.149
5,TCCTCCAA,-0.134
6,ACCAGACA,-0.155
7,TGTGGAAA,-0.162
8,AAGTACTT,0.325
9,CCCGGAGG,-0.392
10,AGGAGCTG,-0.169
11,CATTCCAA,-0.0539
12,CTTACTGC,0.194
13,CATTTACG,0.0408
14,CGGAGACG,-0.133
15,ATACGGCG,-0.174
16,ACGGACCA,-0.109
17,ACACTGAA,-0.0457
18,AGAGCGGG,-0.201
19,TAGAAATA,0.416
20,GATGGATA,0.0398
21,GCCAGGTA,-0.0542
22,CTCTCCAG,-0.364
23,CAAAGGAG,-0.156
24,GAGGAGCA,-0.331
25,ACACCGTG,-0.304

row,Sequence,binding signal [E-score]
1,CGCACTAG,0.11
2,TGGAGCAA,-0.0416
3,TGTGTTAA,-0.0612
4,TATGTAAA,0.295
5,TGTCAGAA,-0.000524
6,AGGCATTC,-0.183
7,GAGCTGCA,-0.0345
8,CCCCCCAC,-0.291
9,AGGGCCCC,-0.412
10,CCCGGCCA,-0.346
11,TGAGTACA,0.0908
12,ACGCGATG,0.0782
13,CGAAATTC,0.254
14,GATGTGCA,-0.0513
15,CACGTTGG,-0.00278
16,AGCCAGTA,-0.181
17,AGCAATAT,0.228
18,ACCTTCCC,-0.197
19,ACCGTAGG,-0.217
20,ATGAGCTC,-0.186
21,ATGCCGAC,-0.152
22,AGCGGTGG,-0.137

# — PMC6212790
